Consider 167 variants from the RNAGym collection of RNA variant scans (doi:10.7554/elife.90254).

Read counts are not given, so values of variants with three or more changes are uncertain.

The labels stand for the following.
B1: LINE1-full (parent)
chain: UACGUAGGUGGUUUUCCCCUGAUAGUGCUAAGGGGGCCUGGAAGUUUGGACUGGGCAGAGCUCAACACAGCGUGGCAAAGUGGCUGUGGCUAGACUGCCUCUCUGGAUUCCUCGUCACUCAGCAGGGCAUCUCUGAGAGAAAUGCC

The data set covers variants of B1. In words: self-cleavage, relative activity (ratio to wild type); higher = more cleavage; in vitro, sequencing; the parent is a self-cleaving ribozyme.
For C71G U100C G114C U134C G139A, the self-cleavage turned out to be 1.45.
With A6U U12C U15A A67G C84A U104C A117G U130A U143A the figure was 0; with U81C U115C U132C, 1.97.
For A22G A65U U112C, the self-cleavage was found to be 0.2.
Consider A2G U26A G97A, for which the self-cleavage is 0.26.
U9A G83A A136G: the self-cleavage came out at 1.29.
For U73C U96C U104C C128U, the self-cleavage amounted to 0.
With U9A A42U U115C the figure was 1.33.
Consider U15C U23C G60A U73C, for which the self-cleavage was 0.18.
As to U23A A50G U100A C113A U132A, the self-cleavage was found to be 0.4.
With U29C A31U U39C U132C the figure was 0.5; with U9A A77C G89A A129U, 0.14; with U14C A65G A121C, 0.29.
For U1C U47C U85C C90U U100A U112C A129U U143C, the self-cleavage stood at 0.06.
With U20C G25A U134C, the self-cleavage was 0.6.
U45C A67G A107G: the self-cleavage stood at 0.28.
With U73C U81A A94G the figure was 0.2; with U26C U96C C118U U134A, 0.
Take U12C A22G U62C A67U: the self-cleavage stood at 0.
For the variant G11A U46A A65U U100C, the self-cleavage was found to be 0.17.
Regarding U5C U14C U39A A57U A69G U73A A124G U134C, the self-cleavage is 0.54.
With C37A U87C U130C A140G the figure was 0.07.
Next, U47A G49A A64U U115G: 0.4.
Next, U20A U26A A69U: 0.02; U23C A57U A59U: 0.09.
G27A A59G C66U A67U: the self-cleavage worked out at 0.07.
Regarding U26G C37G A67G, the self-cleavage came out at 0.
Next, A30U A140C A142G: 0.38; U29G A50U U96A U108C A121U U132C: 0; A30U A42G U119C: 1.53.
With U73A U100A C123U the figure was 1.52; with U29C U119C A124G A140G, 0.6.
Regarding A65G A77G G114A, the self-cleavage is 0.07.
Next, U1C U47A A77U A124U: 0.89; U23C U29C U52C A69U G70U A77G: 0.1; U9A U12C U13C U130C: 0.91.
With U45C U73C G75C U104A the figure was 1.31.
Regarding U1C U52C A57U G93A U115A A138U, the self-cleavage is 0.03.
With A22G U96C U108C A121C the figure was 0; with U39A A64G A124U U143C, 0.07; with U14C U26A U62A U134C, 0.11.
As to U12C U15C U47A A92G U102C, the self-cleavage was 0.
For the variant U62A G89C U96C U104C C116U A124G A140G, the self-cleavage is 0.
Next, U20C A43G A65G C118U U132C: 0.15; U1A U20A A142G G144A: 1.45.
With G106A A107G U108C U134C the figure was 0.96; with U20C U134C U143A, 1.31.
Next, U39C A57G A79U U143C: 0.6.
Consider A67C G74U U134C, for which the self-cleavage came out at 0.03.
U109C A117U A142G: the self-cleavage turned out to be 1.21.
With A67U A124G U134C the figure was 0.09.
Consider U62C G89U U115C, for which the self-cleavage was determined as 0.03.
As to G7C U109C A138G, the self-cleavage was determined as 1.1.
Consider C37A U45C A107G G139A, for which the self-cleavage was determined as 1.06.
Next, A50G C61U A78G U108C A121G: 0.
Regarding A94G U100C C110A, the self-cleavage came to 0.64.
For A22G A64C G114C, the self-cleavage was determined as 0.37.
With A6U U45C A50U U132G A136U the figure was 1.15; with U9C A43G G58A A79G A117G G125U, 0.18.
Consider A31G U46C A78G, for which the self-cleavage came out at 1.34.
Next, U9A U23A U132C: 1.42.
Next, U13C U29C C51A U115A: 0.84; U45C C98U G126A: 0.43.
Consider G49C C113U A141G, for which the self-cleavage turned out to be 1.5.
Next, U23A A24G A64G A94G: 1.15; U29C A30U A43G: 0.74; A57G A124G C133U A141G: 1.33.
With U47C G127A A140G the figure was 1.17; with U29C U102C G106A, 1.32.
Next, G34A U47C U52A: 1.28; U5A U13C A22G A67G U112C: 0; U1A U12A U134C A140G: 0.74.
Regarding U29A A50G U85A, the self-cleavage was determined as 0.12.
As for A77G U102C G122C, the self-cleavage came to 2.9.
With U15A A50U U143A the figure was 1.04; with A31U G44A A57U A64G U119A U130C, 0.13.
With G34U G75A A78G G114A the figure was 0.43; with C90A U104C A124G, 0.09; with G32A A65G A69G A140G A141G, 0.14.
As for G7A U62C U104A, the self-cleavage stood at 0.03.
Next, G25C U104A A142U: 1.4; A24U U100C A121G: 0; U15C U20C A57G A65G: 0.
In the case of U20A U47C U130C, the self-cleavage was 1.15.
As for U15C C19U C84U C103A, the self-cleavage turned out to be 0.21.
Regarding U1G A2G U12G G105A, the self-cleavage is 0.71.
Next, U1C U9C U39A G55C C61A U62A A92U U132A A138U: 0.11; A42G A59G A124U: 0.09; C16U G25A A77U: 0.67.
On to G7U G74A C120A, for which the self-cleavage was 1.01.
For G34A U96G C146U, the self-cleavage turned out to be 0.05.
Turning to A107G A121G A129C A136G, the self-cleavage was 2.7.
Next, U14C U39C A92G: 0.17.
On to U81C U96C U132C, for which the self-cleavage came to 0.
Next, U1C A57G U87C: 0.
Next, A2G U26A G89A C113U A142C: 0.12.
As to A65G G70U U143A, the self-cleavage worked out at 0.06.
With U13C A65G U96A U104A the figure was 0.12.
With U1G U12G U45C A69G G122A the figure was 0.84; with U26C G33U U81A, 1.48; with G82A A117G U130C, 2.3.
As for U62C A92G A142G, the self-cleavage was 0.14.
Next, A43U A78G U96C: 0.
In the case of A24G G74U U85A A138G, the self-cleavage worked out at 0.1.
With A22G A65G G75A A107G the figure was 0.09; with U39A A43G U85C U134C, 0; with A65U A69G U87A U115C, 0.
Next, U12C U14C G55A C90A A129U: 0.05; U20C U62G C63U G80A: 0.03.
As for A2G U62C A136G A140G, the self-cleavage came out at 1.15.
Next, A42U A43C A67U A69G U119C A121U: 0; U39A A78G U81C: 2.3.
With U23C U112A U115C the figure was 0; with U5C G40A U46C A138G, 1.34; with U13C U47C U96A U115C G126A, 0.
On to U26C U39A U62C, for which the self-cleavage worked out at 0.03.
U20C G40A A65G U108C: the self-cleavage is 0.03.
Next, G11C C19U U47A A59G: 0.19.
On to U20A G33A U62G, for which the self-cleavage amounted to 0.11.
With U14C G48A U109A C145G the figure was 1.15.
Next, C113G A124G A136G A140G: 1.8; G41U C123U U132C: 1.21.
As for U81A U112A U134C A140U, the self-cleavage worked out at 2.05.
As for U9C U23C U62C C118U, the self-cleavage was found to be 0.18.
With U134C A136U U143A the figure was 1.99.
Take A31G A65U A77G U91C: the self-cleavage turned out to be 0.42.
Next, A31G U73C G93A: 0.12.
With U9C G21A G33A C133A the figure was 1.08.
With U1A U29C A64U U96C A107G A140G the figure was 0; with U1C A50G U52A, 0.59; with G36A A117U A138G, 1.89.
Consider A92G C99U U115C G135A, for which the self-cleavage is 0.05.
As to G35U A117G A142G, the self-cleavage was found to be 1.46.
With C3U G21A A59G U96A U143C the figure was 0.
With G72A U85A A124G the figure was 0.02; with U14G A94G U96A, 0.12.
In the case of U39A U52A U132C, the self-cleavage stood at 1.38.
With U15C A42U U85C U132C A141G, the self-cleavage was 0.05.
As for A57G U100C U112C A140G, the self-cleavage was determined as 1.41.
Next, U81C U130C A136G: 0.71; A92G A124G A138G: 0.
Consider U23C A140G G144A, for which the self-cleavage is 1.51.
For the variant U9A U13G U15A U26A, the self-cleavage was found to be 0.23.
Consider A57G A140U U143C, for which the self-cleavage came out at 1.89.
With U23C U26A G33A the figure was 1.05; with U47A A140G A142G, 1.33.
With U73C U85C A136U the figure was 0.06; with U100A C118U G144U, 0.62.
Next, U62A A121U C123U U143A: 0.04.
For U1A U108C U115C, the self-cleavage worked out at 0.
Next, U23C U115C U132C U134C: 1.62; U115A A121U A124U: 1.13.
With U20C A30U A107U the figure was 0; with U45C C84U C90G A140G, 0.08.
As for A50U A121U U132A, the self-cleavage turned out to be 1.01.
On to U115C U119C A138G, for which the self-cleavage amounted to 1.72.
With A30U A31G A64G U109A U130C the figure was 0; with A24G G53U A78U U130C, 1.43.
As for A2G U47A G80C, the self-cleavage came to 0.78.
As for U52A U87A U143C, the self-cleavage is 0.09.
Turning to A57G A78G U81A U102A U119C G137A, the self-cleavage turned out to be 0.26.
With U47C A77U A138C the figure was 1.36; with U47C U73C U100A, 1.67; with U39A U73C U130C, 1.42.
Next, A43G U73C A140G: 0; U47A A59U A78G: 0.71; A59G U132C A142G: 0.3.
